Measurements: paper PMC7819943, “Rice protein-binding microarrays: a tool to detect cis-acting elements near promoter regions in rice”
This is one part of the list.

Molecular target: T1, OsWOX13 (Oryza sativa, UniProt Q5QMM3 1-267)
T1 sequence: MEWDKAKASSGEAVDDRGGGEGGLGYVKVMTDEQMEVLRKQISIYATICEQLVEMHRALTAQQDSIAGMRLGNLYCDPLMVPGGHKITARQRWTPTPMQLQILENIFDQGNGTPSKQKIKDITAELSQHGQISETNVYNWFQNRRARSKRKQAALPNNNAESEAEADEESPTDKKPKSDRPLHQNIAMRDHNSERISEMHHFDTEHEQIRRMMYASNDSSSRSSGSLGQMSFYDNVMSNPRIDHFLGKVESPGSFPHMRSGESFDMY
Test: protein-binding microarray (RPBM); PBS, 2% BSA, 51.3 ng/ul salmon testes DNA, 50 uM zinc acetate, 200 nM TF, 25 C, 1 h; high values mean tight binding
Conditions: protein: recombinant; tags: N-terminal polyhistidine and DsRed monomer fusion (pET32a); label: CyDye5-dUTP incorporated in the synthesized complementary strand; 3' TTTTT single-stranded linker to array surface; dsDNA, one strand shown
Outline: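 Using Ni–NTA, transcription factors fused N-terminally to polyhistidine and DsRed were purified after expression in E. coli BL21-CodonPlus. These were incubated at 200 nM with a blocked, double-stranded custom Agilent array for 1 h at 25 °C in a buffer containing 50 µM zinc acetate, and the array was washed. The binding signal is per-feature fluorescence intensity (arbitrary units) on an Axon 4000B scanner.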

Sequence	binding signal
GATGCCTAATTGAATGTTCGTCGCAATCAGTTTCTAGGGACGGAGTCACCTAGTGCAG	35000 fluorescence intensity (a.u.)
TAGTAGCTTAATTGCTAGCTAGTGGTCACTGGTCAGTATACGGAGTCACCTAGTGCAG	4360 fluorescence intensity (a.u.)
AGGAATTATATTGTTAATTCCCCTCTCATTTGAGTGCTTTCGGAGTCACCTAGTGCAG	8680 fluorescence intensity (a.u.)
TTTGAGTGATTGACAGGAAACAAATCCACCACTATCTGTTCGGAGTCACCTAGTGCAG	62400 fluorescence intensity (a.u.)
GTTTCGCGGCCTGATTAGCTTTACACAATTGCTATGAAACCGGAGTCACCTAGTGCAG	5420 fluorescence intensity (a.u.)
AAATTAATTGCTCAATTTGTATGTAAATCACGAGACGAATCGGAGTCACCTAGTGCAG	44400 fluorescence intensity (a.u.)
GACGCGTCGGTGCTGATTGACTCGACGGCCGGCAACGTGGCGGAGTCACCTAGTGCAG	22800 fluorescence intensity (a.u.)
CACACAACATCATCAATCACCAGCTTGAGCTTATAACTGACGGAGTCACCTAGTGCAG	11800 fluorescence intensity (a.u.)
GTCGGATTGGTGCTTGCATGATCTGTTGGTAGATGGGCTGCGGAGTCACCTAGTGCAG	3390 fluorescence intensity (a.u.)
AGTTTCATAAATTACACTGTAACTTACAAGAAAATGCACTCGGAGTCACCTAGTGCAG	4690 fluorescence intensity (a.u.)
TCTGACCATTATTAATTTCTAGCAACTAGCAATTTTGTGCCGGAGTCACCTAGTGCAG	6120 fluorescence intensity (a.u.)
ATTGATTGATAAACCCTACTGCTTCTCGCCGCCGCCGCCGCGGAGTCACCTAGTGCAG	55100 fluorescence intensity (a.u.)
GAGTTAATCAATGCTATAAACTCCCTGATGCTTGATGAGACGGAGTCACCTAGTGCAG	4250 fluorescence intensity (a.u.)
TTCCAGGGTGACAAGATTAATTAATTCATTAAACTTGTCGCGGAGTCACCTAGTGCAG	15400 fluorescence intensity (a.u.)
AAAGCGAAAAGTCTAATTAACACATGATTAGTTAAGTATTCGGAGTCACCTAGTGCAG	17200 fluorescence intensity (a.u.)
AATTAAATAATTTAGAAGCACCGACAGAATACATGATGGTCGGAGTCACCTAGTGCAG	4450 fluorescence intensity (a.u.)
GTAGGTAATTAGTACCTCCGTCCCAAAATAAATGTAGCCTCGGAGTCACCTAGTGCAG	11300 fluorescence intensity (a.u.)
TTTAGATTGCTGCTATATTCTGAAATAGAGCGAGCGGGTACGGAGTCACCTAGTGCAG	12100 fluorescence intensity (a.u.)
AATTAATCACTTGCTAATGACACGTCTCATTTTGCGTGCTCGGAGTCACCTAGTGCAG	24000 fluorescence intensity (a.u.)
GCCTAACTTAACTATTGAAATGGCCTATTTTCTTAGGCATCGGAGTCACCTAGTGCAG	3330 fluorescence intensity (a.u.)
GATGGATTATAATTAGGCTTAAAAGATTCGTCTCGTGATTCGGAGTCACCTAGTGCAG	23000 fluorescence intensity (a.u.)

Sequence	binding signal
GGTGATCTTGATTTGTTTAGCCCAGCTGTGGGGCAAGATCCGGAGTCACCTAGTGCAG	11400 fluorescence intensity (a.u.)
TTTATGTAATTATCATTTATTTTATTATGACTTGATTCGTCGGAGTCACCTAGTGCAG	23700 fluorescence intensity (a.u.)
CATTCTTAGTAAATTAATTAAGAAGTATGTCTAGACAAGGCGGAGTCACCTAGTGCAG	9380 fluorescence intensity (a.u.)
AAGATGATTTCTCCAGTAGTGGAACTGATAGGTAAAGGTCCGGAGTCACCTAGTGCAG	14500 fluorescence intensity (a.u.)
AATAGTTAACCATGACAATTATTCGAGTAATCTATAACACCGGAGTCACCTAGTGCAG	4460 fluorescence intensity (a.u.)
CACCTATCCACCACACATCTGATTGAATGAAAATTAGAAACGGAGTCACCTAGTGCAG	16800 fluorescence intensity (a.u.)
CATTTTAATAGTATAAATTTTGACAGAAATATTTGGATGTCGGAGTCACCTAGTGCAG	4510 fluorescence intensity (a.u.)
GGATTAATTACAGGACCTCTAATTTGTACACAGTGATGTACGGAGTCACCTAGTGCAG	29500 fluorescence intensity (a.u.)
AGATCAATCCATTTGATGGATTAAAATTTACAAATAGATGCGGAGTCACCTAGTGCAG	10600 fluorescence intensity (a.u.)
TTTGGATGTGATGTGATGTGATGGAAAGTTGGAAGTTAGGCGGAGTCACCTAGTGCAG	4790 fluorescence intensity (a.u.)
TAACTACCTCAAGGTATTGATTGATTATACTTTTGGTTCACGGAGTCACCTAGTGCAG	16500 fluorescence intensity (a.u.)
CCCCTTCAATCTCGATCTGTTAATTAAATCCATAGAAGAGCGGAGTCACCTAGTGCAG	12800 fluorescence intensity (a.u.)
ATCAAATAATTAAAAGAGCTTTCGAACCCAGGTTGTCTAGCGGAGTCACCTAGTGCAG	4860 fluorescence intensity (a.u.)
CTTTGGATTTCTGTGATATATGATTGAAATATAGCTGCCGCGGAGTCACCTAGTGCAG	18700 fluorescence intensity (a.u.)
ACATGTAATAGTTGTGATTAAATTGCAGCTGAACTTGTAGCGGAGTCACCTAGTGCAG	11100 fluorescence intensity (a.u.)
TCTCACGAGTATGATTGTTTGTTCCTCATACCACATTCCCCGGAGTCACCTAGTGCAG	5060 fluorescence intensity (a.u.)
TGTGAGATTGGTGGATCTCACATAAGCAATTTAATTGCCACGGAGTCACCTAGTGCAG	6610 fluorescence intensity (a.u.)
ATATATATATATATATATATAAATACATTAAATATATTTTCGGAGTCACCTAGTGCAG	3380 fluorescence intensity (a.u.)
AGGTGACAAGTTAAACTAATATTATGTACCTAGATACGTGCGGAGTCACCTAGTGCAG	4860 fluorescence intensity (a.u.)
TGAAATTAATTTGATGTGATAGATTTCTAGGTTTTCTTTGCGGAGTCACCTAGTGCAG	64300 fluorescence intensity (a.u.)
AACATAATTAAAACTCGGCGTCGAAGATACGAGAGATGTACGGAGTCACCTAGTGCAG	7030 fluorescence intensity (a.u.)

Sequence	binding signal
TAAAGAACTCGATAATTGCAGATGGATTAGTCATCTGAGGCGGAGTCACCTAGTGCAG	6860 fluorescence intensity (a.u.)
GTTTAGATTTATTGTATTAGAATGTGCTACATTCAATTCTCGGAGTCACCTAGTGCAG	4190 fluorescence intensity (a.u.)
CCGTGTTAATTACGGACAGAATAACCTCCATATACGTGGTCGGAGTCACCTAGTGCAG	22800 fluorescence intensity (a.u.)
TTAATTGGTGGTCGTATTATTTGCATTATTTTCTTACAAGCGGAGTCACCTAGTGCAG	34200 fluorescence intensity (a.u.)
GGACATGACATCCTATTAACAGCCATCGCACGAAATTAATCGGAGTCACCTAGTGCAG	4830 fluorescence intensity (a.u.)
GAAACGAAACAGGGGATCAATCAAACGAAACGGCGCCAAACGGAGTCACCTAGTGCAG	4490 fluorescence intensity (a.u.)
AATCCCTCAATCATTCTTACTTCTCTAGGCTCGTATAGTACGGAGTCACCTAGTGCAG	4690 fluorescence intensity (a.u.)
ATAAATAAAATAGATTAATATGAGATATATTAGTCCACAACGGAGTCACCTAGTGCAG	11300 fluorescence intensity (a.u.)
GCGCTAATTTAACTGAACTTATAGTGGCCTTCATTATCATCGGAGTCACCTAGTGCAG	16600 fluorescence intensity (a.u.)
GCTAAATGAGTTTGTAGAAATTGATGGTCAAATATTCAAACGGAGTCACCTAGTGCAG	4000 fluorescence intensity (a.u.)
ATGTTATAAATCAATGATCATACAGAGTCGTGTACTCATGCGGAGTCACCTAGTGCAG	4990 fluorescence intensity (a.u.)
GTAATTAATTAATTAAGAAATGTGTTCACTAACGAATTGCCGGAGTCACCTAGTGCAG	48800 fluorescence intensity (a.u.)
CCACATAATTGTCACATAATCATAACCATATGGGACTATTCGGAGTCACCTAGTGCAG	19500 fluorescence intensity (a.u.)
TCACATAATTATTAATTTTACCAAATAATGATATGGTTGACGGAGTCACCTAGTGCAG	35300 fluorescence intensity (a.u.)
TAATTAAATAATAATAATCACGCAAATCGTCACAGACTCACGGAGTCACCTAGTGCAG	8740 fluorescence intensity (a.u.)
AAGATGTAATAATTGTTGGTGAATGATAATGTGACATCTTCGGAGTCACCTAGTGCAG	7160 fluorescence intensity (a.u.)
GCTCAATTTAAACAGTCATTCGTACAGATTCTCTATAATTCGGAGTCACCTAGTGCAG	10000 fluorescence intensity (a.u.)
TTATCCATCAATCCAACGTGTTTAGCTATCTCAATCATGGCGGAGTCACCTAGTGCAG	5140 fluorescence intensity (a.u.)
ACTGATCACTGTATTAATTATAATCAGTCACACACACACCCGGAGTCACCTAGTGCAG	24500 fluorescence intensity (a.u.)
GTGATTTGCTGTGGACACATTATCTGTGGTTAGAGACCTGCGGAGTCACCTAGTGCAG	8380 fluorescence intensity (a.u.)
AGTTTGGATTTTGGTTGAAATTGAAGATAATGTGACTGAACGGAGTCACCTAGTGCAG	3240 fluorescence intensity (a.u.)

Sequence	binding signal
TTATTCAGATGTTTCAATCAATATTTTGTGGTGTCTCACTCGGAGTCACCTAGTGCAG	8500 fluorescence intensity (a.u.)
GAATAATTGGTTGGTAGCTAGATTCTAATAATCAAGAGAACGGAGTCACCTAGTGCAG	18900 fluorescence intensity (a.u.)
ACTATTTAATTAGCTACTTGTCTTATTGACTATTTTCCAACGGAGTCACCTAGTGCAG	17200 fluorescence intensity (a.u.)
CATGTAATGATAGAAAGATTTGGATGAGCTTTGCATACAACGGAGTCACCTAGTGCAG	7420 fluorescence intensity (a.u.)
GCTTAATTGGTGGTGATAGCGTTACGTTACTAACCAAATTCGGAGTCACCTAGTGCAG	31800 fluorescence intensity (a.u.)
TAACTGATTAACTCACCTGCTGATTCTACAAATAAGCTACCGGAGTCACCTAGTGCAG	24600 fluorescence intensity (a.u.)
AAGTAATTGGAAAGAAGCTTGTTAGACAGTATTCCATAGTCGGAGTCACCTAGTGCAG	22600 fluorescence intensity (a.u.)
TGTAATCAAATCATAAATTAGATAAACGGTTTAGGAGAAACGGAGTCACCTAGTGCAG	20500 fluorescence intensity (a.u.)
CGTAATTTTCACCGGATTAAGGAAGCATAGGTTCAAGTGGCGGAGTCACCTAGTGCAG	13900 fluorescence intensity (a.u.)
TCCCGAAGTTCTTGATTGATGCGAGCTTGATGGCCCAAATCGGAGTCACCTAGTGCAG	25900 fluorescence intensity (a.u.)
CGTACGTCGATACTGAAATTAACCTTCAGCTTAATTTCCGCGGAGTCACCTAGTGCAG	3570 fluorescence intensity (a.u.)
TTTGATTTTCTTAAGCACAACACAAATGCAAATGCTCATGCGGAGTCACCTAGTGCAG	5380 fluorescence intensity (a.u.)
TGGTCAATCAGGTTTGTCGTCCAGCCCGCATTTCCTTGCACGGAGTCACCTAGTGCAG	17600 fluorescence intensity (a.u.)
AAGCTTAATTTGTCGTTAAGCACCTGCAGAGCTCGCATGACGGAGTCACCTAGTGCAG	15800 fluorescence intensity (a.u.)
TTTAATTTGACGATAGATCCAATTCGTTTAATATTTCGGACGGAGTCACCTAGTGCAG	22100 fluorescence intensity (a.u.)
TGCAAATTATAGTAAGTACTAAACAGAACAGAACACGGGACGGAGTCACCTAGTGCAG	6530 fluorescence intensity (a.u.)
ACATAATTTTATTTTAAAATGGTATTAATAGTTTTCTTATCGGAGTCACCTAGTGCAG	32000 fluorescence intensity (a.u.)
AGATGCAATTTATAATATAATTATACTATATTATATTGTACGGAGTCACCTAGTGCAG	12900 fluorescence intensity (a.u.)
CAAAATCACAGAAATTTTGACACGTGGCATATAATGCCAGCGGAGTCACCTAGTGCAG	8320 fluorescence intensity (a.u.)
AAAACCAATTGCACAATTTACATGTAAATCATGAGACGAACGGAGTCACCTAGTGCAG	5050 fluorescence intensity (a.u.)
GATCAATATGGTGATTAAATTTCCCTTCCTGCTATATTGTCGGAGTCACCTAGTGCAG	5260 fluorescence intensity (a.u.)
